Experimental data: paper PMC10386414 (Molecules, 2023)

Assays:
[1] = target: T1, human δ-opioid receptor (OPRD1) (Homo sapiens, UniProt P41143); settings: for DOR Antagonist %Imax ± SEM: versus EC50 of SNC80, Imax normalized to naltrexone
[2] = target: T1, human δ-opioid receptor (OPRD1); test: cell-based; settings: for Emax: CHO-K1, read-out: DOR Agonist %Emax ± SEM
[3] = target: T1, human δ-opioid receptor (OPRD1); test: cell-based
[4] = target: human κ-opioid receptor (OPRK1) (Homo sapiens, UniProt P41145); settings: for KOR antagonist activity (in words): cAMP assay
[5] = target: T1, human δ-opioid receptor (OPRD1); settings: cAMP assay

Chain of UniProt P41145 (P41145 whole entry): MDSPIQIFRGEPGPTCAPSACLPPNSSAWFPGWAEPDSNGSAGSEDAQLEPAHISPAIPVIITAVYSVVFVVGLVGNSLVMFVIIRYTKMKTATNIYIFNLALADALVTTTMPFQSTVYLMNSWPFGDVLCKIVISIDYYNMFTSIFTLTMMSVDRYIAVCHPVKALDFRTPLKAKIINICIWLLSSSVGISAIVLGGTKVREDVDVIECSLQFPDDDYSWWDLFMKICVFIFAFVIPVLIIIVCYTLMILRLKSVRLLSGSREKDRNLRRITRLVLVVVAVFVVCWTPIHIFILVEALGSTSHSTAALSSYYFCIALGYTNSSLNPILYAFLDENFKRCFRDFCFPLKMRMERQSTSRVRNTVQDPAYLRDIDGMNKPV
T1 sequence (P41143 whole entry): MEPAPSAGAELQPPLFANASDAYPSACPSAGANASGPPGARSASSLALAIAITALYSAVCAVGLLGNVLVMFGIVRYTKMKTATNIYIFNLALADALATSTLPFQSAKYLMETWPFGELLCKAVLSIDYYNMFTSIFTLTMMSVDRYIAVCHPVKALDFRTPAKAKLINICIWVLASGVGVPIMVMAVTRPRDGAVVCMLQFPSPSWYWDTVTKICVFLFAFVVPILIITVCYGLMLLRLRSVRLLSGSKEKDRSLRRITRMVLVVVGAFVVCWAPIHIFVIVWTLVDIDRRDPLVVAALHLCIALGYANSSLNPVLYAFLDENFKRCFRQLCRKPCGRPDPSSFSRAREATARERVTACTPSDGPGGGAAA

SMILES	DOR Antagonist %Imax ± SEM [1] [%]	EC50 [2] [nM]	IC50 [3] [nM]	IC50 [4] [nM]	Emax [2] [%]	DOR agonist activity (in words) [5]	KOR antagonist activity (in words) [4]	DOR antagonist activity (in words) ([1]; cAMP assay)
CC[C@H]1[C@@H]2CCC[C@@]1(c1cccc(O)c1)CCN2CCc1ccccc1 [compound 15, 3-((1S,5R,9R)-9-Ethyl-2-phenethyl-2-azabicyclo[3.3.1]nonan-5-yl)phenol]	157 ± 11	> 10000	75 ± 30	11 ± 6	–	–	–	–
CCC[C@H]1[C@@H]2CCC[C@@]1(c1cccc(O)c1)CCN2CCc1ccccc1 [compound 16]	96 ± 4	> 10000	84 ± 33	12 ± 5	–	–	–	–
CCCC[C@H]1[C@@H]2CCC[C@@]1(c1cccc(O)c1)CCN2CCc1ccccc1 [compound 17, 3-((1S,5R,9R)-9-Butyl-2-phenethyl-2-azabicyclo[3.3.1]nonan-5-yl)phenol]	125 ± 8	> 10000	30 ± 9	5.2 ± 0.6	–	–	–	–
CC[C@@H]1[C@@H]2CCC[C@@]1(c1cccc(O)c1)CCN2CCc1ccccc1 [compound 18, 3-((1S,5R,9S)-9-Ethyl-2-phenethyl-2-azabicyclo[3.3.1]nonan-5-yl)phenol]	–	426 ± 148	–	–	69	–	–	–
CCC[C@@H]1[C@@H]2CCC[C@@]1(c1cccc(O)c1)CCN2CCc1ccccc1 [compound 19, 3-((1S,5R,9S)-2-Phenethyl-9-propyl-2-azabicyclo[3.3.1]nonan-5-yl)phenol]	112± 10	> 10000	990 ± 389	–	–	–	–	–
CCCC[C@@H]1[C@@H]2CCC[C@@]1(c1cccc(O)c1)CCN2CCc1ccccc1 [compound 20, 3-((1S,5R,9S)-9-Butyl-2-phenethyl-2-azabicyclo[3.3.1]nonan-5-yl)phenol]	122 ± 21	> 10000	2080 ± 1060	–	–	–	–	–
CC[C@H]1[C@H]2CCC[C@]1(c1cccc(O)c1)CCN2CCc1ccccc1 [compound 35, 3-((1R,5S,9R)-9-Ethyl-2-phenethyl-2-azabicyclo[3.3.1]nonan-5-yl)phenol]	110 ± 5	2.9 ± 0.9	42 ± 9	112 ± 57	29 ± 20	low efficacy DOR partial agonist	weak antagonist activity at KOR	–
CCC[C@H]1[C@H]2CCC[C@]1(c1cccc(O)c1)CCN2CCc1ccccc1 [compound 36, 3-((1R,5S,9R)-2-Phenethyl-9-propyl-2-azabicyclo[3.3.1]nonan-5-yl)phenol]	147± 28	> 10000	162 ± 47	204 ± 77	–	–	–	–
CCCC[C@H]1[C@H]2CCC[C@]1(c1cccc(O)c1)CCN2CCc1ccccc1 [compound 37, 3-((1R,5S,9R)-9-Butyl-2-phenethyl-2-azabicyclo[3.3.1]nonan-5-yl)phenol]	159 ± 13	> 10000	107 ± 27	> 10000	–	–	–	–
CC[C@@H]1[C@H]2CCC[C@]1(c1cccc(O)c1)CCN2CCc1ccccc1 [compound 38, 3-((1R,5S,9S)-9-Ethyl-2-phenethyl-2-azabicyclo[3.3.1]nonan-5-yl)phenol]	149 ± 38	> 10000	435 ± 132	48 ± 21	–	–	–	–
CCC[C@@H]1[C@H]2CCC[C@]1(c1cccc(O)c1)CCN2CCc1ccccc1 [compound 39, 3-((1R,5S,9S)-2-Phenethyl-9-propyl-2-azabicyclo[3.3.1]nonan-5-yl)phenol]	170± 6	> 10000	368 ± 54	54 ± 26	–	–	–	–
CCCC[C@@H]1[C@H]2CCC[C@]1(c1cccc(O)c1)CCN2CCc1ccccc1 [compound 40, 3-((1R,5S,9S)-9-Butyl-2-phenethyl-2-azabicyclo[3.3.1]nonan-5-yl)phenol]	178 ± 15	> 10000	681 ± 73	604 ± 234	–	–	–	–
C[C@@H]1[C@@H]2CCC[C@@]1(c1cccc(O)c1)CCN2CCc1ccccc1 [compound 43, 9S-methyl-1S,5R-5-phenylmorphan]	–	699 ± 388	–	369 ± 187	51	–	–	–
C[C@H]1[C@@H]2CCC[C@@]1(c1cccc(O)c1)CCN2CCc1ccccc1 [compound 48, 3-((1S,5R,9R)-9-Methyl-2-phenethyl-2-azabicyclo[3.3.1]nonan-5-yl)phenol]	144 ± 5	> 10000	194 ± 48	2.6 ± 0.5	–	–	about as potent as the reference kappa ligand, nor-BNI	very little DOR antagonist activity
C[C@@H]1[C@H]2CCC[C@]1(c1cccc(O)c1)CCN2CCc1ccccc1 [compound 56, 3-((1R,5S,9S)-9-Methyl-2-phenethyl-2-azabicyclo[3.3.1]nonan-5-yl)phenol]	196 ± 23	> 10000	489 ± 147	14 ± 7	–	–	–	–
